Test results taken from paper PMC6919601, “Identification of Plasmodium dipeptidyl aminopeptidase allosteric inhibitors by high throughput screening” (PLoS ONE, 2019).
The whole screen tested about 110,000 compounds, of which about 230 (0.21%) showed an effect of 50% or more. Some of the results follow.
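Also: 30 min substrate incubation versus DMSO and 10 µM JCP410 controls.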

Each compound was assayed against DPAP1 (Plasmodium falciparum, UniProt Q8IIJ9) (assay: primary screen, percent inhibition; read by cleavage of a fluorogenic dipeptide substrate; higher = more effect of the substance).
Chain of DPAP1 (Q8IIJ9 whole entry, looked up): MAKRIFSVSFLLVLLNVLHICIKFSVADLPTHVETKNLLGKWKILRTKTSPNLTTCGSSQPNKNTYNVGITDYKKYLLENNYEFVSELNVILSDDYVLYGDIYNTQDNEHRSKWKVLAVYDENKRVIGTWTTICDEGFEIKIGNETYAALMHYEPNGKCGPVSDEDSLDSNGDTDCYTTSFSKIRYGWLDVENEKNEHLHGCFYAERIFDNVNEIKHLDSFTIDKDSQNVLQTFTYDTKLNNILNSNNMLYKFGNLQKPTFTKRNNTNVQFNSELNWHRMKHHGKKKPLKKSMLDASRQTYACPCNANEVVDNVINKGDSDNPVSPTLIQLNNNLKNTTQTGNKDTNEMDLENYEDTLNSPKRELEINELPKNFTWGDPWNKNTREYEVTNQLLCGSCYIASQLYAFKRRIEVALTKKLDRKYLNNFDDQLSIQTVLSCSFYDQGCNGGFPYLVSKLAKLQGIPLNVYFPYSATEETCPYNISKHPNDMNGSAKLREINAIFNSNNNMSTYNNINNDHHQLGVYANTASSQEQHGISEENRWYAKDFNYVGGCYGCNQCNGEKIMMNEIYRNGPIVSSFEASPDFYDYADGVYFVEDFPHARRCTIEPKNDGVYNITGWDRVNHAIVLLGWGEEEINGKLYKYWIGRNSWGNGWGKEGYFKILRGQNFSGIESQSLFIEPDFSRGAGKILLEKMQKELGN
Parameters: species or system P. falciparum D10 trophozoite lysates; single well
For `Cc1cc(NC(=O)CSc2nc(-c3ccc(F)cc3)cc(C(F)(F)F)n2)no1`, the “% Inhibition @ 10 uM” value was 1.39%.
With `Cc1ccc2nc3c(cc(C#N)c(=O)n3CCN3CCOCC3)c(=O)n2c1` the “% Inhibition @ 10 uM” value was -4.07%.
With `Cc1[nH]c2ccccc2c1C(=O)/C=C/C(=O)O` the “% Inhibition @ 10 uM” value was -2.51%.
In the case of `COC(=O)c1ccc(C2C(C#N)=C(N)Oc3[nH]nc(-c4cccs4)c32)cc1` (centres unmarked), the “% Inhibition @ 10 uM” value is reported as -4.91%.
With `CC1=C(C(=O)OC2CCCC2)C(c2cccc(F)c2)C2=C(O)CC(C)(C)CC2=N1` (centres unmarked) the “% Inhibition @ 10 uM” value was -8.61%.
For `COCC(C)NCc1ccc2ccccc2c1` (centres unmarked), the “% Inhibition @ 10 uM” value was 3.44%.
For `CCOC(=O)c1sc2nc(C)cc(C)c2c1-n1cccc1`, the “% Inhibition @ 10 uM” value was 2.7%.
`COc1cccc(-c2nnc3n(Cc4ccccc4)c(=O)c4ccccc4n23)c1O` was tested, and the “% Inhibition @ 10 uM” value was -3.51%.
In the case of `COc1ccc(COC(=O)C2=C(C)NC(=O)NC2c2ccc(Cl)cc2)cc1` (centres unmarked), the “% Inhibition @ 10 uM” value is reported as -0.769%.
With `O=C(O)Cn1nnc(-c2cccs2)n1` the “% Inhibition @ 10 uM” value was 1.12%.
With `O=C1OC2(CCCC2)OC(=O)C1=Cc1cc(Cl)c(O)c(Cl)c1` the “% Inhibition @ 10 uM” value was -1.47%.
`COc1ccc(NC(=O)C(CC(=O)O)Cc2ccc(Br)cc2)cc1` (centres unmarked) was tested, and the “% Inhibition @ 10 uM” value was 4.85%.
In the case of `CCOc1ccc2oc(-c3ccccc3)c(C(=O)N(C)C)c2c1`, the “% Inhibition @ 10 uM” value is reported as 0.235%.
`CC/N=C1/SC(C(=O)Nc2cccc(OC)c2)CC(=O)N1CC` (centres unmarked) was tested, and the “% Inhibition @ 10 uM” value was -3.24%.
In the case of `CC1=CC2=NC(C(F)(F)F)(C(F)(F)F)N=C(C)N2C=C1`, the “% Inhibition @ 10 uM” value is reported as -5.4%.
With `CC1(C)CC(=O)C2=C(C1)N(c1ccc(S(N)(=O)=O)cc1)C(N)=C(C#N)C2c1ccccc1F` (centres unmarked) the “% Inhibition @ 10 uM” value was -3.19%.
For `CCC(C)NC(=O)C1CCN(C(=O)c2ccccc2Cl)CC1` (centres unmarked), the “% Inhibition @ 10 uM” value was 1.52%.
In the case of `COc1ccc(-c2noc(CC(=O)Nc3cccc(C)n3)n2)cc1`, the “% Inhibition @ 10 uM” value is reported as -5.26%.
`CCc1ccc(-c2nc3cc(NC(=O)c4cccc5ccccc45)ccc3o2)cc1` was tested, and the “% Inhibition @ 10 uM” value was -0.591%.
For `CCC(C(=O)NCCc1ccc(Cl)cc1)n1nc(C)c2c(C)n(-c3ccc(C)cc3)nc2c1=O` (centres unmarked), the “% Inhibition @ 10 uM” value was -8.14%.
`Cc1cc(-n2cc3c(c2-c2ccccc2)c(=O)n(C)c(=O)n3C)no1` was tested, and the “% Inhibition @ 10 uM” value was 0.758%.
For `CCOC(=O)C1=C(C)OC(N)=C(C#N)C1c1ccccc1OC` (centres unmarked), the “% Inhibition @ 10 uM” value was -1.69%.
With `N#CCCN1CCN(C2=NC(=O)/C(=C/c3ccc(Cl)cc3)S2)CC1` the “% Inhibition @ 10 uM” value was -1.02%.
In the case of `Cc1ccc(-c2ccc(/C=C(\C#N)C(=O)NCCO)o2)cc1`, the “% Inhibition @ 10 uM” value is reported as 4.35%.
`Cc1ccc(-c2csc(-c3cc4cc(Cl)cc(Cl)c4oc3=O)n2)c(C)c1` was tested, and the “% Inhibition @ 10 uM” value was -2.42%.
In the case of `CCOC(=O)N1CCN(C(=O)CCCCCNc2nc(S)nc3ccccc23)CC1`, the “% Inhibition @ 10 uM” value is reported as 5.84%.
In the case of `O=C(O)COc1ccc(NC(=O)c2ccccc2)cc1`, the “% Inhibition @ 10 uM” value is reported as 7.71%.
In the case of `O=C(NCCc1ccccc1)c1ccc(C2SCC(=O)N2CCc2ccccc2)cc1` (centres unmarked), the “% Inhibition @ 10 uM” value is reported as -6.78%.
`CC(=O)Nc1ccc(CN2CCCN(C)CC2)cc1` was tested, and the “% Inhibition @ 10 uM” value was 3.84%.
`CCc1nn(CC(=O)NC(C)CC)c(=O)c2cc3sccc3n12` (centres unmarked) was tested, and the “% Inhibition @ 10 uM” value was 1.8%.
`Cc1cccc(Cn2c(NCC(C)O)nc3c2c(=O)n(C)c(=O)n3C)c1` (centres unmarked) was tested, and the “% Inhibition @ 10 uM” value was 5.06%.
For `CSCCC(NC(=O)c1cc(C)oc1C)C(=O)O` (centres unmarked), the “% Inhibition @ 10 uM” value was 0.413%.
With `CCOC(=O)c1cnc(SCc2ccc(OC)cc2)nc1N` the “% Inhibition @ 10 uM” value was -3.36%.
With `Cn1c(=O)c2c(O)c([N+](=O)[O-])c(O)nc2n(C)c1=O` the “% Inhibition @ 10 uM” value was -1.76%.
For `CC1=CC(C)C2C(=O)N(O)C(=O)C2C1` (centres unmarked), the “% Inhibition @ 10 uM” value was 8.07%.
In the case of `CC(=O)Nc1ccc(C2C(C#N)=C(N)OC3=C2C(=O)CC(c2ccccc2)C3)cc1` (centres unmarked), the “% Inhibition @ 10 uM” value is reported as 8.01%.
`COc1ccc(OC)c(NC(=O)CN(c2cc(Cl)ccc2OC)S(C)(=O)=O)c1` was tested, and the “% Inhibition @ 10 uM” value was -7.63%.
For `Cc1cc(=O)n2nc(N3CCCC(C(=O)NCCc4ccccc4)C3)sc2n1` (centres unmarked), the “% Inhibition @ 10 uM” value was 3%.
`COC(=O)C1=NNC2C(=O)N(c3ccccc3)C(=O)C12` (centres unmarked) was tested, and the “% Inhibition @ 10 uM” value was -1.85%.
For `O=C(NCc1ccc2c(c1)OCO2)C1CCCN1S(=O)(=O)c1cccc2cccnc12` (centres unmarked), the “% Inhibition @ 10 uM” value was -6.07%.
For `O=C(COc1ccc(S(=O)(=O)NCc2ccccc2)cc1Cl)N1CCOCC1`, the “% Inhibition @ 10 uM” value was 5.14%.
With `Cc1cc(=O)n(C)c(=O)n1CCCCO` the “% Inhibition @ 10 uM” value was -3.65%.
In the case of `O=C1C2CC=CCC2C(=O)N1Cc1ccccc1` (centres unmarked), the “% Inhibition @ 10 uM” value is reported as 4.07%.
`CCOC(=O)c1c(-c2ccc(F)cc2)csc1N` was tested, and the “% Inhibition @ 10 uM” value was 0.716%.
With `CCN(C(=O)c1ccc(C)cc1)c1nc(-c2ccccc2)cs1` the “% Inhibition @ 10 uM” value was 1.22%.
For `Cn1cccc1-c1nc2cc(NC(=O)c3cccs3)ccc2[nH]1`, the “% Inhibition @ 10 uM” value was 4.31%.
For `Cc1ccccc1CN(c1ccc(C(=O)NCc2ccncc2)cc1)S(C)(=O)=O`, the “% Inhibition @ 10 uM” value was -7.17%.
`COc1ccc(Nc2ccnc(Nc3ccc(OC)cc3)n2)cc1` was tested, and the “% Inhibition @ 10 uM” value was 5.07%.
`Cc1ccc(-n2ncc(C(=O)NC3CCC(C)CC3)c2-n2cccc2)cc1` (centres unmarked) was tested, and the “% Inhibition @ 10 uM” value was 9.38%.
With `Cc1oc2c(O)c(O)ccc2c(=O)c1Oc1ccc(F)cc1` the “% Inhibition @ 10 uM” value was 0.512%.
With `COc1ccc(C2=NN(C(C)=O)C(c3ccc(OC)cc3)C2)cc1` (centres unmarked) the “% Inhibition @ 10 uM” value was 9.1%.
For `NC(=O)NC(Cc1ccccc1)C(=O)O` (centres unmarked), the “% Inhibition @ 10 uM” value was -6.84%.
In the case of `CC(C)Oc1ccc(C(=O)Nc2cccnc2)cc1`, the “% Inhibition @ 10 uM” value is reported as 1.59%.
`Cc1ccc(-c2nn3c(CC#N)nnc3c3ccccc23)cc1` was tested, and the “% Inhibition @ 10 uM” value was 6.38%.
In the case of `CCCOc1ccc(C(=O)Nc2ccc(N3CCOCC3)cc2)cc1`, the “% Inhibition @ 10 uM” value is reported as -5.26%.
In the case of `CCN(CCN(C)C)Cc1ccc(C(C)C)cc1`, the “% Inhibition @ 10 uM” value is reported as -1.78%.
With `OCC1CCCCN1Cc1ccco1` (centres unmarked) the “% Inhibition @ 10 uM” value was -2.12%.
With `CCOc1ccc(CCNc2cc(C)nc3nc(C)nn23)cc1OCC` the “% Inhibition @ 10 uM” value was -5.29%.
With `CN(Cc1ccccc1)S(=O)(=O)c1ccc2ncc(C(=O)NCC3CCCO3)c(O)c2c1` (centres unmarked) the “% Inhibition @ 10 uM” value was 5.21%.
For `Cc1ccccc1OCC(=O)Nc1nonc1NC(=O)COc1ccccc1C`, the “% Inhibition @ 10 uM” value was 0.316%.
With `CCC(C(=O)c1ccccc1)n1c(N2CCOCC2)nc2c1c(=O)n(C)c(=O)n2C` (centres unmarked) the “% Inhibition @ 10 uM” value was -10.4%.
For `Cn1c(=O)n(CCSc2ccc(Cl)cc2)c(=O)c2ccccc21`, the “% Inhibition @ 10 uM” value was 4.27%.
With `COc1ccc(C2=NS(=O)(=O)N(C)C(C(=O)NCC3CCCO3)=C2)cc1` (centres unmarked) the “% Inhibition @ 10 uM” value was -2.84%.
With `CC1=C(C(=O)Nc2ccc(Cl)cc2)C(c2ccc(Cl)cc2Cl)NC(S)=N1` (centres unmarked) the “% Inhibition @ 10 uM” value was -2.2%.
For `CC(C)C[C@H](NC(=O)c1ccc2c(c1)-c1ccccc1-2)C(=O)NCC#N`, the “% Inhibition @ 10 uM” value was 1.35%.
